From PubChem BioAssay AID1768 (National Center for Advancing Translational Sciences (NCATS), 2009)
The campaign covered roughly 270,000 compounds. About 620 (0.23%) were called active. Inconclusive results, whose numbers are uncertain, are shown with a selection of clear calls. The call rests on the fitted dose curve; in most records, active means well fitted inhibition curve with a large enough effect in the polarisation, with a control signal flat (not every such curve was filed as active); inconclusive means small, poorly fitted or top-dose-only effect, or effect the other way, or a change in a side signal; inactive means no such curve, though single readings can be large or run the other way; the % refers to the polarisation. Potencies of inconclusive entries are doubtful fits and often do not repeat. “Side channel” marks fits to a control or component signal instead of the main read-out.

What follows are compounds tested against Menin (Homo sapiens) (UniProt O00255) (assay: qHTS Assay for Inhibitors Targeting the Menin-MLL Interaction in MLL Related Leukemias: Competition With Texas Red Labeled MLL-derived Mutant Peptide). Conditions: fluorescence polarization; FP activity change, negative = inhibition: at 61.6 µM (top of the series).
UniProt O00255, sequence (O00255 whole entry, looked up): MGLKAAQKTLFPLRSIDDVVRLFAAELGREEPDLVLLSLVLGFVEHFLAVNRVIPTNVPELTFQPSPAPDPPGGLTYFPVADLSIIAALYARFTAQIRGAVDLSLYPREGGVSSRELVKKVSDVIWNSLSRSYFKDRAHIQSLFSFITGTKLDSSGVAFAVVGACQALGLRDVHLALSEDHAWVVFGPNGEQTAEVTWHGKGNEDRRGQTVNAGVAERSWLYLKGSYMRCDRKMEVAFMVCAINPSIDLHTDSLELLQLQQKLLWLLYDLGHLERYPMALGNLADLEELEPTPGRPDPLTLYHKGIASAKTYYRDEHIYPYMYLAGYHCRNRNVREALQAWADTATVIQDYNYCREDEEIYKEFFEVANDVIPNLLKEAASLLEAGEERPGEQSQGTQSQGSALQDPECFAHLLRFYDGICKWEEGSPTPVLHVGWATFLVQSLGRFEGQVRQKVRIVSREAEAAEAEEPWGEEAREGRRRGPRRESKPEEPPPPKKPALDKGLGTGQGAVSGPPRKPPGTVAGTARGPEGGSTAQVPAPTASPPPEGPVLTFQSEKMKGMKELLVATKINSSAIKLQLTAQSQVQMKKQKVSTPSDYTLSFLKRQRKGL
Potency means the concentration at half of the fitted maximal effect; tags describe the fitted curve by direction and shape or compound fluorescence and quenching.
Wherever FP activity change, negative = inhibition is given: % of control where 0% means no effect.

Potency, inconclusive:
Cc1ccc(C(=O)Nc2ccsc2C(=O)O)cc1 25.1 µM [quencher, side channel, single point]
Cc1cc2c(n1-c1ccc(Cl)cc1)CC(C)(C)CC2=O 11.2 µM [fluorescent, side channel, partial curve]
O=C(NC(=S)Nc1cccc2cnccc12)c1ccccc1 31.6 µM [fluorescent, side channel, single point]
Cc1cccc(NC(=O)COC(=O)c2cc3ccccc3oc2=O)c1 35.5 µM [inhibitor, single point]
O=c1oc2c3c4c(cc2c(C(F)(F)F)c1CCN1CCOCC1)CCCN4CCC3 1.58 µM [inhibitor, full curve]
Cc1c(-c2n[nH]c(=S)n2-c2ccc(Br)cc2)nnn1-c1ccc(Cl)cc1 2 µM [quencher, side channel, partial curve, poor fit]
CN(C)S(=O)(=O)c1cc(NC(=O)COC(=O)Cc2cccc3ccccc23)ccc1Cl 10 µM [quencher, side channel, partial curve]
O=C(Cn1nnc(-c2ccc(CN3CCOCC3)cc2)n1)Nc1nc(-c2ccccc2)cs1 25.1 µM [quencher, side channel, single point]
CCOc1ccc(Oc2cc(NC(=O)c3ccco3)cc([N+](=O)[O-])c2)cc1 11.2 µM [quencher, side channel, partial curve]
Cc1nc2ccc([N+](=O)[O-])cc2c(=O)n1Cc1ccccc1Br 22.4 µM [quencher, side channel, partial curve]
Cc1c(C2CC(=O)N(c3ccccc3)C2=O)[nH]n(-c2ccccc2)c1=O (stereo unspecified) 31.6 µM [quencher, side channel, single point]
Cc1ccc(C(=O)NC2c3ccccc3-c3ccccc32)cc1 39.8 µM [inhibitor, partial curve]
Cc1[nH]c2ccc(-c3n[nH]c(=S)n3-c3ccc(Br)cc3)cc2c1C 31.6 µM [quencher, side channel, single point]
O=C(Nc1cccc(C(F)(F)F)c1)c1cccc(NS(=O)(=O)c2ccc(O)c(C(=O)O)c2)c1 12.6 µM [quencher, side channel, partial curve]
CCC(C)NC(=O)CSc1nnc(-c2cc(OC)c(OC)c(OC)c2)c(-c2cc(OC)c(OC)c(OC)c2)n1 (stereo unspecified) 10 µM [inhibitor, partial curve]
Oc1ccc(NCc2ccc(OCc3ccccc3)cc2)cc1 25.1 µM [inhibitor, single point]
CCCN(CCC)S(=O)(=O)c1ccc(C(=O)Nc2nnc(CSC)o2)cc1 31.6 µM [quencher, side channel, single point]
O=C(N/N=C/c1ccc(OC(=O)c2cccs2)cc1)c1ccccn1 25.1 µM [fluorescent, side channel, partial curve]
CN(C)S(=O)(=O)c1ccc(NC(=S)NC(=O)c2cccs2)cc1 28.2 µM [quencher, side channel, single point]
COc1cc(NC(=O)CSc2ncnc3sc4c(c23)CCC(C)C4)c(C(=O)O)cc1OC (stereo unspecified) 31.6 µM [quencher, side channel, single point]
Cc1cc(C(=O)NCC(=O)OCC(=O)N(C2CCCCC2)C2CCCCC2)ccc1[N+](=O)[O-] 12.6 µM [fluorescent, side channel, partial curve]
CCN(CC)CC#CCC(C)(c1ccccc1)c1ccccc1 7.08 µM [fluorescent, side channel, partial curve]
CC(C)(C)OC(=O)NCCCC[C@H](NC(=O)c1nc[nH]c1C(=O)N1CCN(C(=O)OC(C)(C)C)CC1)C(=O)OC(C)(C)C 7.94 µM [fluorescent, side channel, partial curve]
Cc1nc2cnc(N3CCOCC3)nc2n(Cc2ccc(F)cc2)c1=O 8.91 µM [fluorescent, side channel, full curve]
Cc1ccc2cccc(OCc3ccc(F)cc3)c2n1 25.1 µM [inhibitor, partial curve]
CS(=O)(=O)c1ccc(-c2cn3cc(C(=O)O)ccc3n2)cc1 15.8 µM [inhibitor, partial curve]
CCOC(=O)C1(Cc2cccc(OC)c2)CCN(Cc2ccc3c(c2)OCCO3)CC1 1.41 µM [fluorescent, side channel, full curve]
COC(=O)C1=C(C)N(Cc2ccccc2)C(=NCc2ccc(OC)cc2)N[C@H]1c1ccccc1 7.94 µM [inhibitor, full curve, poor fit]
COc1ccc(CCN2CCCn3c2nc2c3c(=O)n(CC(N)=O)c(=O)n2C)cc1OC 15.8 µM [inhibitor, partial curve]
COc1cc(C(=O)Nc2ccc(Cl)c([N+](=O)[O-])c2)cc(OC)c1OC 14.1 µM [quencher, side channel, partial curve]
O=C(C1CC1)N1CCc2cc(S(=O)(=O)NC3CCN(Cc4ccccc4)CC3)ccc21 39.8 µM [fluorescent, side channel, single point]
CCOC(=O)c1sc2nc(COC(=O)c3c(F)cccc3F)[nH]c(=O)c2c1C 2.82 µM [inhibitor, full curve, poor fit]
CCCOP(=O)(c1ccc(N(C)C)cc1)C(O)c1ccc(Cl)cc1 (stereo unspecified) 2 µM [inhibitor, full curve, poor fit]
Cc1nc(NC(=O)COc2ccccc2)sc1C(=O)Nc1ccccc1 28.2 µM [quencher, side channel, partial curve]
COc1ccc(C(=O)N/N=C(\C)c2ccc3c(c2)C2C=CCC2C(c2ccccc2)N3)cc1 (stereo unspecified) 25.1 µM [quencher, side channel, single point]
COc1ccccc1NS(=O)(=O)c1ccc(NC(=O)Cc2cccs2)cc1 35.5 µM [quencher, side channel, single point]
COc1cc(NC(=O)c2cccc(C)c2)ccc1NC(=O)c1cc2ccccc2o1 28.2 µM [fluorescent, side channel, single point]
CN1CCc2c(sc3c2C(=O)NC(c2ccc4c(c2)OCO4)N3)C1 (stereo unspecified) 31.6 µM [inhibitor, partial curve]
CN(C)C(=O)c1ccccc1-c1ccccc1 25.1 µM [inhibitor, single point]
O=C1NC(=S)N/C1=C/c1cccc2ccccc12 39.8 µM [fluorescent, side channel, single point]
Cc1ccc(-n2cnc3sc(C)c(C)c3c2=O)cc1 28.2 µM [fluorescent, side channel, partial curve]
Nc1ccc2nc(NC(=O)C3CCCCC3)sc2c1 17.8 µM [quencher, side channel, partial curve, poor fit]
CCOc1cc(N2CCOCC2)c(OCC)cc1NS(=O)(=O)c1cc(NC(C)=O)ccc1OC 14.1 µM [inhibitor, partial curve]
O=C(CN1C(=O)N/C(=C\c2ccccc2OCc2ccc(C(=O)O)cc2)C1=O)Nc1ccccc1F 39.8 µM [inhibitor, single point]
C=CCn1c(NCc2cc(C)ccc2O)nc2ccccc21 39.8 µM [quencher, side channel, single point]
O=C(CCc1ccccc1)OCC(=O)c1cccc([N+](=O)[O-])c1 22.4 µM [quencher, side channel, single point]
O=C(N=Nc1c(O)n(Cc2ccccc2)c2ccccc12)c1cc2ccccc2cc1O 8.91 µM [quencher, side channel, full curve]
COc1cccc(CN2CCN(CC#Cc3ccccc3)CC2CCO)c1 (stereo unspecified) 0.631 µM [fluorescent, side channel, full curve, poor fit]
COCCNC(=O)C1CCN(S(=O)(=O)N2CCC3(CC2)OCCO3)CC1 4.47 µM [inhibitor, full curve, poor fit]
CC(=O)c1ccc(Cc2ncc(C(F)(F)F)cc2Cl)s1 3.98 µM [inhibitor, single point]

FP activity change, negative = inhibition, inactive:
CNC1C(OC2C(O[C@@H]3C(O)C(O)[C@@H](N=C(N)N)C(O)C3N=C(N)N)OC(C)[C@@]2(O)CO)OC(CO)C(O)C1O (stereo partly specified) 1.86%
O=C(NCc1cccnc1)c1ccc(-c2ccc(Cl)cc2)o1 6.8%
Cn1c(=O)c2c(nc(NCc3cccnc3)n2Cc2ccc(Cl)cc2)n(C)c1=O 0.0984%
C[Se]CC[C@H](N)C(=O)O -3.13%
O=C(Nc1ccc2c(c1)C(=O)NC2=O)c1ccccc1Cl 1.19%
O=C(NCCc1nc2ccccc2[nH]1)/C(=C/c1ccc2c(c1)OCO2)NC(=O)c1ccccc1 2.43%
